# PubChem BioAssay AID1347073 (National Center for Advancing Translational Sciences (NCATS), 2019)
# In all, about 45,000 compounds went through this assay and about 200 (0.44%) were called active. Not shown: some 7% with an inconclusive outcome. Calls come from the whole dose curve; as a rule, active = well fitted activation curve with a large enough effect; inconclusive = small, poorly fitted or top-dose-only effect; inactive = no such curve, though single readings can be large or run the other way. Some of the results follow.
# Assay: qHTS of TDP-43 Inhibitors: NCGC Sytravon Library Screen; note: 0% is about no effect; nearly all actives have a fitted effect of over 55% in size
# Conditions: yeast TDP-43 toxicity rescue, BacTiter-Glo growth, 24 h; series mostly up to 46.1 µM; growth rescue (activation): at the top concentration
# In short: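 TDP-43-expressing yeast, pregrown in raffinose, seeded at OD600 0.02 in galactose medium with compound for 24 hr at 30 deg C. Growth read by BacTiter-Glo luminescence, so rescue of toxicity appears as activation.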
row,SMILES,growth rescue (activation)
1,O=C(O)c1ccccc1-c1ccccc1C(=O)NNc1ccc([N+](=O)[O-])cc1,inactive: 4.18%
2,Cc1ccc2occ(C(c3nnnn3Cc3ccccc3)N3CCOCC3)c(=O)c2c1 (configuration not stated),inactive: 14.7%
3,CCC(=O)N1CCN(c2ccccc2NC(=O)c2ccc([N+](=O)[O-])o2)CC1,inactive: 21.6%
4,COc1ccccc1/C=C/C(=O)OCCN1CCOCC1,inactive: 22.9%
5,CCOc1ccc(CCNC(=O)c2nnc(CS(=O)(=O)c3ccccc3)o2)cc1OCC,inactive: -8.33%
6,CCOCCCNC(=O)c1ccc(N2CCCC2)c(NS(=O)(=O)c2ccc(C)cc2)c1,inactive: 3.49%
7,CCc1ccc(C(=O)NC(CCSC)C(=O)O)cc1 (configuration not stated),inactive: 7.57%
8,COc1ccc(C(=O)C2CCN(CC(=O)Nc3cc(C)cc(C)c3)CC2)cc1,inactive: -19.5%
9,CCOc1ccc(-n2c(C)cc(/C=N\NC(=O)CC(=O)NC3CCCCC3)c2C)cc1,inactive: 22.3%
10,Cc1cc(NS(=O)(=O)c2ccc(NC(=O)/C=C/c3ccc(Br)cc3)cc2)no1,inactive: 16.3%
11,CC(C)c1cc(NC(=O)c2ccccc2)cc(C(C)C)c1O,inactive: 9.82%
12,CSc1ccc(CN2CCN(C(=O)c3ccncc3)CC2)cc1,inactive: -26.7%
13,Cc1cc(C)n(/C(=C\N(C)C)C(=O)c2ccc(Cl)cc2)n1,inactive: 10.4%
14,Cc1ccc(CN2CCCC2(C)C(=O)NC(C)C)cc1 (configuration not stated),inactive: 6.2%
15,O=C(Nc1ccc2nc3ccccc3nc2c1)c1ccccc1,inactive: -20.7%
16,CCCn1c(SCC(=O)C(C)(C)C)nc2ccccc21,inactive: -1.83%
17,CN(Cc1cnccn1)C(=O)CC1C(=O)NCCN1CC(c1ccccc1)c1ccccc1 (configuration not stated),inactive: -7.42%
18,CCOC(=O)c1ccc(NC(=S)NCc2cccnc2)cc1,inactive: 5.84%
19,Cc1cccc2c(N=NC(=O)C(C)n3cnc4ccccc4c3=O)c(O)[nH]c12 (configuration not stated),inactive: -31.4%
20,CCCCN=C1NN=C(c2ccc3c(c2)OCCO3)CS1,inactive: 26.1%
21,COc1ccc(S(=O)(=O)NC(Cc2cnc[nH]2)C(=O)O)cc1 (configuration not stated),inactive: -1.89%
22,CC(=O)Nc1ccc(NC(=O)C2CC(=O)N(Cc3ccccc3)C2)cc1 (configuration not stated),inactive: 11.8%

row,SMILES,growth rescue (activation)
1,O=C(O)c1cccc(Nc2cc(Cl)c3nonc3c2[N+](=O)[O-])c1,inactive: -17.1%
2,O=C(NCc1cc(Cl)cc(Cl)c1)c1csc(COCCO)n1,inactive: 12.6%
3,Cc1ccc(C(=O)CC2C(=O)N(c3ccccc3)C(=S)N2c2ccccc2)cc1 (configuration not stated),inactive: -11.4%
4,CCOC(=O)CCC(NC(=O)c1ccccc1C(=O)NC(CCC(=O)OCC)C(=O)OCC)C(=O)OCC (configuration not stated),inactive: 0.477%
5,Cc1ccc(OCCCCN(C)Cc2ccccc2)c(Br)c1,inactive: -18%
6,Cc1ccc(NC(=O)COC(=O)[C@H](C)NC(N)=O)c(C)c1,inactive: -7.74%
7,Cc1ccn(-c2ccc(NC(=O)c3cccs3)cc2)n1,inactive: -36.1%
8,CCCCNC(=O)c1ccc2nc(CC)c(N(C)Cc3cccs3)n2c1,inactive: 8.68%
9,O=C(COc1cccc(Br)c1)N/N=C/C(=O)c1ccccc1,inactive: 8.11%
10,COc1ccccc1NC(=O)c1sc2ncn(Cc3cccc4ccccc34)c(=O)c2c1C,inactive: -15.2%
11,O=C(Nc1nc2ccccc2[nH]1)c1cccc(Br)c1,inactive: 3.65%
12,O=C(NC(C(=O)N/N=C/c1cccnc1)c1n[nH]c(=O)c2ccccc12)c1ccccc1 (configuration not stated),inactive: 13%
13,O=C(NC1CCN(Cc2ccccc2)CC1)c1cc(S(=O)(=O)Nc2ccc(F)cc2)ccc1Cl,inactive: -3.06%
14,O=C(O)CCCn1cc(NC(=O)COc2cc(F)ccc2[N+](=O)[O-])cn1,inactive: -1.24%
15,O=C(OCc1nc2scc(-c3ccccc3)c2c(=O)[nH]1)c1cc(Cl)ccc1[N+](=O)[O-],inactive: 10.2%
16,CC1CN(c2nc3ccccc3nc2C(C#N)C(=O)NCc2ccc3c(c2)OCO3)CC(C)O1 (configuration not stated),inactive: -13.2%
17,CC(=O)Nc1ccc(NC(=O)C/C(C)=N/NC(=O)C(=O)Nc2ccc(C)c(Cl)c2)cc1,inactive: -7.22%
18,CN(C)CCCOc1ccc(-c2cccc3nncn23)cn1,inactive: -0.0634%
19,CCN1/C(=C/C=C2/SC(=Nc3cccc4ncccc34)N(C)C2=O)Sc2ccccc21,inactive: 13.3%
20,Cc1cc(CN(C)C(=O)CC2C(=O)NCCN2Cc2ccc(F)c(F)c2)on1 (configuration not stated),inactive: 1.92%
21,NC(=O)CSc1nnc(CSc2ncccn2)n1-c1ccccc1,inactive: 8.34%
22,NC(=O)c1nsc(C(=O)N(c2ccccc2)C(C(=O)NCC2CCCO2)c2cccs2)c1N (configuration not stated),inactive: 9.03%

row,SMILES,growth rescue (activation)
1,COc1ccc(N(CC(=O)NC2CC3CCC2C3)S(=O)(=O)c2ccccc2)cc1Cl (configuration not stated),inactive: 8.12%
2,COc1ccc(NC(=O)C(NC(=O)c2ccc(=O)[nH]c2)c2ccc(C)cc2)cc1 (configuration not stated),inactive: 0.463%
3,O=C(CCS(=O)(=O)c1ccccc1)Nc1nncs1,inactive: 6.65%
4,CC(=O)Nc1ccc2nc(SCC(=O)NCCOc3ccccc3)sc2c1,inactive: 1.03%
5,O=C(NCc1ccc(F)c(F)c1)C1CCC(=O)N(CC2CCCCC2)C1 (configuration not stated),inactive: 6.2%
6,C/C(=N\Nc1ccc([N+](=O)[O-])cc1)c1ccc(O)cc1,inactive: 2.51%
7,COc1ccc(CCN(C)C(=O)CNC(=O)c2ccccc2F)cc1OC,inactive: -21%
8,CC(C)(C)C(=O)Nc1ccc(C(=O)N/N=C/c2ccccc2OC(=O)c2ccccc2)cc1,inactive: 1.03%
9,O=C(CN1C(=O)NC2(CCCC2)C1=O)Nc1ccccc1,inactive: 10.1%
10,Cc1cccc(C)c1NC(=O)NC1(C(=O)NCc2ccncc2)CCCCC1,inactive: 11.9%
11,CC(=O)c1cccc(-c2cnc3c(NC=O)cc(-c4ccccc4Oc4ccccc4)cn23)c1,inactive: 19.7%
12,CCNc1ccc(C(=O)OCC(=O)NCc2ccc(C)cc2)cc1[N+](=O)[O-],inactive: -19.4%
13,Cc1cc(=O)[nH]c(N/N=C/c2c(C)nn(-c3ccccc3)c2Cl)n1,inactive: 1.09%
14,CC(Sc1cccc[n+]1[O-])C(=O)Nc1cc(Cl)c(Cl)cc1Cl (configuration not stated),inactive: 7.14%
15,COc1cccc(NC(=O)[C@H](C)NC(=O)C2CCN(S(=O)(=O)c3ccc(C)cc3)CC2)c1,inactive: 15.1%
16,CCOc1cc(CNc2cccc3[nH]c(C)nc23)ccc1OC,inactive: 10.8%
17,CCOc1ccc(CN2CCNC(=O)C2CC(=O)NCc2csc(C)n2)cc1 (configuration not stated),inactive: -18.3%
18,O=C(CNC(=O)c1cccc(OC(F)F)c1)OCn1nnc2ccccc2c1=O,inactive: 5.25%
19,Cc1cc(C)c(C)c(S(=O)(=O)N2CCN(C)CC2)c1C,inactive: -1.39%
20,COc1ccc(CC(=O)Nc2ccc3nc(SC)sc3c2)cc1OC,inactive: 16.1%
21,O=C(Cn1cnnn1)NCCc1ccc(Cl)cc1Cl,inactive: 10.7%
22,O=C(CC1C(=O)NCCN1Cc1c(F)cccc1Cl)NCCCn1ccnc1 (configuration not stated),inactive: 9.03%

row,SMILES,growth rescue (activation)
1,O=C(CCSc1nnc2ccccn12)Nc1ccc2c(c1)OCO2,inactive: 3.66%
2,CC(C)N(c1ccccc1)c1ccc(NC(=O)[C@@H]2O[C@H](CO)[C@H](O)[C@H](O)[C@H]2O)cc1,inactive: -3.2%
3,CCCc1cc(C(=O)Nc2ccc(F)c(Cl)c2)no1,inactive: 3.39%
4,Cn1c(CNC(=O)c2ccco2)nnc1SCC(=O)N1CCN(c2ccccc2F)CC1,inactive: -6.25%
5,Cc1ccc(NC(=O)CN(C)C(=O)Cc2ccccc2F)cc1,inactive: 20.3%
6,COc1ccc(-c2noc(CCC(=O)NC3CCCC3)n2)cc1,inactive: 16.8%
7,CCOC(=O)N1CCC(NC(=O)c2cc(COc3ccc(F)cc3Cl)on2)CC1,inactive: 10.9%
8,Cn1c(SCC(=O)Nc2ccc(NC(=O)c3cccc(F)c3)cc2)nnc1-c1ccncc1,inactive: 12%
9,O=C(O)CN1CCN(c2ncc(C(F)(F)F)cc2Cl)CC1,inactive: -0.177%
10,COc1ccc(/C=N/NC(=O)c2ccc(CSc3nc(C)cc(C)n3)cc2)c(OC)c1OC,inactive: 17.3%
11,OCCC1CN(Cc2ccn[nH]2)CCN1Cc1ccc(F)c(F)c1 (configuration not stated),inactive: 9.62%
12,CCC1=NNC(=O)C(CC(=O)Nc2ccccc2)c2cc(OC)c(OC)cc21 (configuration not stated),inactive: -1.42%
13,Cc1ccc(F)cc1NC(=O)c1cnccn1,inactive: 13.2%
14,CNc1ncc(C(=O)c2ccc(Br)cc2)s1,inactive: 12%
15,Cc1ccc(OCc2nnc(SC(C)C(=O)O)n2-c2ccccc2)cc1 (configuration not stated),inactive: 4.43%
16,CCC(C)CN1CCC(CO)(Cc2ccccc2Cl)CC1 (configuration not stated),inactive: 6.45%
17,Cc1nnc(SCC(=O)NCC2CCCCC2)n(N)c1=O,inactive: 0.216%
18,Cc1nc2ccccc2c(=O)n1/N=C/c1c(O)ccc2ccccc12,inactive: -15.5%
19,COc1ccccc1/C=C/C(=O)NCC(=O)N/N=C(/C)c1ccco1,inactive: 8.91%
20,Cc1ccc(/C=C/C(=O)NCc2cccs2)c(C)c1,inactive: 6.9%
21,O=C(CSc1ncnc2[nH]ncc12)Nc1cccc(Oc2ccccc2)c1,inactive: 9.49%
22,COc1ccccc1NC(=O)COC(=O)C1CC1,inactive: 9.62%

row,SMILES,growth rescue (activation)
1,Cc1ccc(NC2CCCN(C(=O)CSc3ccccn3)C2)cc1C (configuration not stated),inactive: -2.71%
2,COc1ccc(CCNC(=O)COC(=O)C2CC2)cc1,inactive: 10.7%
3,COc1cccc(C(C(=O)NC2CCCC2)N(CC2CCCO2)C(=O)Cc2cccs2)c1 (configuration not stated),inactive: 17.3%
4,COc1ccc(S(=O)(=O)N2CCCCCC2)cc1NC(=O)c1ccccc1S(C)(=O)=O,inactive: 18.8%
5,O=C(Nc1ccc2ccccc2c1)c1ccccc1O,inactive: 10.7%
6,CC[n+]1c(/C=C/c2c[nH]c3ccccc23)ccc2cc(C)ccc21,inactive: -15.7%
7,CC(C)C(=O)N1CCN(c2ccc(NC(=O)COc3ccccc3[N+](=O)[O-])cc2)CC1,inactive: -5.09%
8,CCN(CC)C(=O)C1CCCN(c2ccccc2[N+](=O)[O-])C1 (configuration not stated),inactive: 2.83%
9,Cc1ccc(NS(=O)(=O)c2ccc(C(=O)Nc3nncs3)cc2)cc1,inactive: 9.42%
10,Cc1nn(-c2ccccc2)c(Cl)c1/C=N/NC(=O)c1ccc(CNc2ccccc2)o1,inactive: 4.68%
11,CC(=O)Nc1ccc(Nc2nc(C)nc3c2nnn3Cc2ccccc2Cl)cc1,inactive: -24.8%
12,CCOC(=O)N1CCN(C(=O)CNC(=O)c2ccccc2F)CC1,inactive: 16.4%
13,COc1cc(NC(=O)CCCNC(=O)c2ccc(Cl)cc2)cc(OC)c1,inactive: 13.3%
14,O=c1cc[nH]c2c1ccc1c(=O)cc[nH]c12,inactive: 9.16%
15,CC(C)OC(=O)c1ccccc1C(=O)c1ccc(N)c([N+](=O)[O-])c1,inactive: 11.7%
16,CC1(C(=O)NS(=O)(=O)c2ccccc2)CCN1C(=O)Cc1ccccc1 (configuration not stated),inactive: 4.1%
17,COc1ccc(C2(c3ccc(OC)cc3)NC(=O)N(CC(=O)Nc3ccccc3)C2=O)cc1,inactive: 11.4%
18,Cc1cc(Br)c(NC(=O)CN2CCCC2)c(Br)c1,inactive: 4.42%
19,CC(C)OC(=O)c1cccc(C(=O)Nc2cccc(NC(=O)c3cccc(C(=O)OC(C)C)n3)n2)n1,inactive: -10.2%
